# Results published in article PMC4336329 (PLoS ONE, 2015).
# About 14,000 (4.5%) of roughly 310,000 compounds showed an effect of 50% or more. Effects have a minus sign here. This is one part of the list.
# Molecular target: human ether-à-go-go-related gene (hERG) potassium channel (human, UniProt Q12809)
# Experiment: primary screen, population patch clamp on CHO cells stably expressing hERG
# 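Also: peak tail current of the secondary pulse compared with the same well before compound.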
# Sequence of human ether-à-go-go-related gene (hERG) potassium channel (Q12809 whole entry, looked up): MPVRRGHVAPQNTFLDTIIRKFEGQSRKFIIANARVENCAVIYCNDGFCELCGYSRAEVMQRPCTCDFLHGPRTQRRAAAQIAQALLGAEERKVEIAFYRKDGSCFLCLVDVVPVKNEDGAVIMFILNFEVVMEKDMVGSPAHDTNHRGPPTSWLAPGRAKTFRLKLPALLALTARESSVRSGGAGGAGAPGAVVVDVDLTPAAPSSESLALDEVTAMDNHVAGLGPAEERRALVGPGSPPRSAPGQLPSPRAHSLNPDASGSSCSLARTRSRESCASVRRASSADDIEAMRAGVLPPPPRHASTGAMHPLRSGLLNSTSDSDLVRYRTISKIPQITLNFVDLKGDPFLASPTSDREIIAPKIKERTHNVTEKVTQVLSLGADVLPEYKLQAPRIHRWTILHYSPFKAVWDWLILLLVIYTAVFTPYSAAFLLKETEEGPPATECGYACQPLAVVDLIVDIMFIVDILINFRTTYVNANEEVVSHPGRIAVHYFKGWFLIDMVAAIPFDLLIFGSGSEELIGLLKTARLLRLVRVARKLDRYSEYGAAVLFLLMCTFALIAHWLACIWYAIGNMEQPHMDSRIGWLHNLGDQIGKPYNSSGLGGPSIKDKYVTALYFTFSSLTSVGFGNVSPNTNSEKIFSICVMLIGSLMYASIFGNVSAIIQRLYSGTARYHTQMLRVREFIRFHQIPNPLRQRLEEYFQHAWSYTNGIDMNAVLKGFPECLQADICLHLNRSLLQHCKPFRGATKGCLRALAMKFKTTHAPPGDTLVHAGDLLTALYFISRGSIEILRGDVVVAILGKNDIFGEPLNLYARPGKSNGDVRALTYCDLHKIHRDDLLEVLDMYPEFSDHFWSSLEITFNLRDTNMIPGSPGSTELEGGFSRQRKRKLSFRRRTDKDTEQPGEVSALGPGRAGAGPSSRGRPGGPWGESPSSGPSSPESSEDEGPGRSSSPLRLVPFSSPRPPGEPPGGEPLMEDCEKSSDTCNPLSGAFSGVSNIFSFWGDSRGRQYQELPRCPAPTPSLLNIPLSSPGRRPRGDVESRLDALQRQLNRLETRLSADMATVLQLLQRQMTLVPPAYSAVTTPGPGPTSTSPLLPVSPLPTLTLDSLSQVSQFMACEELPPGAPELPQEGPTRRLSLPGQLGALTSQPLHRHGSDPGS
row,SMILES,"hERG current change (%, negative = inhibition) at 10uM [%]"
1,CCOC(=O)N1CCN(CC(O)c2c[nH]c3ccccc23)CC1 (stereo not shown),15.6
2,CCS(=O)(=O)Nc1ccc(C2=NN(S(=O)(=O)CC)C(c3cccs3)C2)cc1 (stereo not shown),-9.32
3,COCCNC(=O)CN(C(=O)CCC(=O)Nc1ccccn1)c1ccc(C)c(C)c1,16
4,CC(C)CC(=O)n1sc(NC(=O)c2ccccc2)nc1=O,3.03
5,Cc1ccccc1Cn1cnc2c(cnn2C(C)(C)C)c1=O,-9.6
6,O=S(=O)(NCC(c1cccnc1)N1CCN(c2ccc(F)cc2)CC1)c1ccccc1 (stereo not shown),-53.2
7,CCc1cc(=O)oc2c(C)c(OCC(=O)N3CCCc4ccccc43)ccc12,-11.2
8,O=C(NCCCN1CCOCC1)C1COc2ccccc2O1 (stereo not shown),33.4
9,COc1ccc(C(=O)C2CCCN(S(=O)(=O)c3ccc(C(C)=O)cc3)C2)c(C)c1 (stereo not shown),-11
10,O=C(/C=C/c1ccc2c(c1)OCO2)NCc1ccncc1,9.85
11,O=C(CCN1C(=O)[C@@H]2Cc3ccccc3CN2C1=O)N[C@@H](Cc1ccccc1)C(=O)O,8.75
12,C[C@]12CC[C@@H]3c4ccc(O)cc4C(=O)C[C@H]3[C@@H]1CC[C@@H]2O,-52.7
13,CC(C)(C)C(=O)c1cnc(Nc2ccccc2)s1,-3.28
14,COc1ccc(-c2nc(S(=O)(=O)c3ccc(C)cc3)c(N3CCCC3)o2)cc1,17.2
15,O=C(CSc1nnc2c(n1)[nH]c1ccc(S(=O)(=O)N3CCOCC3)cc12)Nc1ccc(F)c(F)c1,-10.5
16,O=C(O)c1cc(-c2ccco2)nc2ccccc12,18.4
17,O=C(Nc1ccc2nsnc2c1)N1CCCCC1,22.2
18,Cc1ccnc2nc(C(=O)Nc3cc(Cl)ccc3N3CCOCC3)nn12,-10.3
19,CC(C)NC(=O)COC(=O)c1ccc(O)cc1,4.9
20,CCc1nc(SCC(=O)NCC2CCCO2)c2c(=O)n(C)c(=O)n(C)c2n1 (stereo not shown),4.55
21,CCOC(=O)CC(=O)CSc1ncnc2c1nnn2-c1ccccc1,20.3
22,CC(C)OC(=O)c1cccc(C(=O)O)n1,9.43
23,CCOc1ccc(-n2c(SCC(=O)Nc3cc(C)on3)nc3c([nH]c4ccccc43)c2=O)cc1,-4.25
24,COc1cccc(Nc2ncnc3nc[nH]c23)c1,-1.1
25,CC(C)(C)NC(=O)NC(=O)COC(=O)Cn1c(C(F)(F)F)nc2ccccc21,20.9
